These results are taken from PubChem BioAssay AID488969 (Vanderbilt High Throughput Screening Facility, 2010).

In all, about 110,000 compounds were measured (“z-score”: median about -0.1, highest 2% from about 2 on). Some of the results follow. Calls of active or inactive are those of the source.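 Rule for the calls: active = z-score in the third read window above 3 or below -3; inactive = the rest.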 Residues, ends and D or L forms follow the SMILES beside them. *: point of attachment. Boc = CC(C)(C)OC(=O)*

The target in this test is Metabotropic glutamate receptor 8 (Rattus norvegicus) (UniProt P70579). Description: rat mGluR8 modulators via GIRK flux, primary screen, cell-based, thallium flux, HTS (AID 488969). To be noted: HEK293 rat mGluR8, GIRK (G protein-gated inwardly rectifying potassium channel) thallium flux, FluoZin2; at 10 µM; stronger effect = higher value; submaximal glutamate (EC20) added with thallium.
Chain of UniProt P70579 (P70579 whole entry, looked up): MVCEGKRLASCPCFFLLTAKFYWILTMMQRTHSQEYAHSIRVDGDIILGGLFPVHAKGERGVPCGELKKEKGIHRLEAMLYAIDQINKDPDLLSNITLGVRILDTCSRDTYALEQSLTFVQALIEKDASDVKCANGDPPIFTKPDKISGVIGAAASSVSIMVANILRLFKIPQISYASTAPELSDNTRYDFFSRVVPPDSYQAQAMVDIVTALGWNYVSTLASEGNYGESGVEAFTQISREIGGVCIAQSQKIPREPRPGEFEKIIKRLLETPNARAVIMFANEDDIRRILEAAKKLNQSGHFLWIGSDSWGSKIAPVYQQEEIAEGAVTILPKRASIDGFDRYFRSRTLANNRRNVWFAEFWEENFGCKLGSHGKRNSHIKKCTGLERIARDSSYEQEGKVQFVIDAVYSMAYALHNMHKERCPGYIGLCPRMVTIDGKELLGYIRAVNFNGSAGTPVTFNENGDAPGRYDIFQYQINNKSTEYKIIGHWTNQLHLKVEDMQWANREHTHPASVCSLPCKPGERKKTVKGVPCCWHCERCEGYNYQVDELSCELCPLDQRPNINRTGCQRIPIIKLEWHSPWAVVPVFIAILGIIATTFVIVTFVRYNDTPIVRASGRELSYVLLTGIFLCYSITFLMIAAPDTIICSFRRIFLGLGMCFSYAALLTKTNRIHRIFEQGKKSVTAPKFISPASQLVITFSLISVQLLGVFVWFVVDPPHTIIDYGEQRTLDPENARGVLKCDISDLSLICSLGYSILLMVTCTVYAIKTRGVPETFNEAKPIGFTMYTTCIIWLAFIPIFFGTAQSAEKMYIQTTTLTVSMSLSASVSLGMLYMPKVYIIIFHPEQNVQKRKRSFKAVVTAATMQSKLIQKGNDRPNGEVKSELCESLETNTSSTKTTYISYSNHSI
As for `Cc1ccccc1N=C/C=C1\N(C)c2ccccc2C1(C)C`, the z-score worked out at 0.23.

`COc1ccc(/C=N/N=C2\CC3CCC2(C)C3(C)C)cc1O` (centres undefined) registered a z-score of 0.286.

Consider `CCC12CC3CC(C1)CC(C(=O)Nc1nn[nH]n1)(C3)C2`, for which the z-score is -0.108.

`CCOC(=O)c1cnn(-c2ncnc3sc(CC)cc23)c1N` returned a z-score of 0.192.

Take `C=CCn1c(Cc2nc3ccccc3[nH]2)n[nH]c1=S`: the z-score is -0.147.

The compound `Cc1ccc2cc(C#N)c(NCCCNC(=O)C3CCCO3)nc2c1` (centres undefined) gave a z-score of 0.471.

In turn, `Cc1ccc(-n2ccnc2SCC(=O)O)c(C)c1` gave a z-score of -0.959.

Compound `CC1CCN(C(=O)COC(=O)c2ccc(Br)o2)CC1` yielded a z-score of -0.366.

In turn, `CCCn1c(C2CC(=O)N(c3ccc(C)cc3)C2)nc2ccccc21` (centres undefined) returned a z-score of -0.224.

The compound `COCCn1nnnc1C(C(C)C)N1CCN(C(=O)c2ccco2)CC1` (centres undefined) gave a z-score of -0.255.

With `O=[N+]([O-])c1cccc(S(=O)(=O)N2CCC(c3nc(-c4ccncc4)no3)CC2)c1`, the z-score was -0.207.

As to `Cc1nc(-c2ccccc2)sc1-c1nc(-c2cccs2)ncc1S(=O)(=O)c1ccccc1`, the z-score was -0.0428.

With `COC(=O)C1=C(C)N(C)C(=O)NC1c1ccc(O)c(OC)c1` (centres undefined), the z-score was -0.0527.

`Cc1cccc(OCCNC(=O)CSc2ccc(C(F)(F)F)cc2[N+](=O)[O-])c1`: the z-score is -0.0684.

As to `COc1ccc(C(=O)NCCc2c[nH]c3ccccc23)cc1S(=O)(=O)N1CCOCC1`, the z-score was -0.0814.

`C/C(=N\OCC(=O)Nc1ccc(F)c(F)c1F)c1cc2ccccc2o1` returned a z-score of -1.92.

Consider `Cc1cc(/C=C2/NC(=O)N(c3ccccc3)C2=O)c(C)n1-c1cccnc1`, for which the z-score was -0.404.

`COc1ccc(NC(=O)N2CCCCC2c2cccnc2)cc1` (centres undefined) displayed a z-score of -0.168.

`COC(=O)c1ccc(C2Nc3ccc(/C(C)=N/NC(=O)C(OC)c4ccccc4)cc3C3C=CCC32)cc1` (centres undefined) showed a z-score of -0.34.

Regarding `CC(=O)N(c1ccc(N(C(C)=O)S(=O)(=O)c2cccs2)cc1)S(=O)(=O)c1cccs1`, the z-score was found to be 0.19.

Compound `COC(=O)C(C)N(C#N)c1nc(C)nc(C)n1` (centres undefined) showed a z-score of -0.57.

In the case of `CCOC(=O)N1CCN(C(=O)CSc2ncccn2)CC1`, the z-score came out at 0.107.

The compound `CC(C)CC(c1nnnn1CCc1ccccc1)N1CCC(C(N)=O)CC1` (centres undefined) yielded a z-score of 0.238.

As for `CCCCOC(=O)c1ccc(NC(=O)/C=C/c2cccs2)cc1`, the z-score was -0.063.

The compound `Cc1cc(CNC(=O)Cc2c(F)cccc2Cl)nn1C` registered a z-score of 0.266.

Compound `Cc1ccc(CCNc2ccc3ccccc3c2)cn1` displayed a z-score of 0.548.

Compound `COC(=O)[C@H](Cc1ccccc1)NC(=O)NCc1ccc(S(N)(=O)=O)cc1` yielded a z-score of 0.212.

In the case of `CCOC(=O)N1CCN(S(=O)(=O)c2ccc(OC)c3ccccc23)CC1`, the z-score is -0.219.

The compound `COc1ccc(C(=O)Nc2ccc(Cl)cc2C(=O)NCCO)cc1` returned a z-score of -0.145.

As to `CCOc1ccc(S(=O)(=O)NNC(=O)c2cc3ccccc3o2)cc1`, the z-score is -0.34.

In turn, `c1ccc(-c2nn3c(-c4ccco4)nnc3s2)nc1` had a z-score of 0.869.

Turning to `CCCc1cc(C(=O)OC)c(NC(=O)OCC)s1`, the z-score stood at 0.148.

For `Cc1cc(C(=O)N/N=C2\CCCC(C)C2)n[nH]1` (centres undefined), the z-score is -0.208.

The compound `Cc1cc(C)nc(SCC(=O)N2CCC(C(N)=O)CC2)n1` returned a z-score of 0.0531.

Take `O=C(c1cc2nc(-c3ccco3)cc(C(F)(F)F)n2n1)N1CCN(c2ccc(F)cc2)CC1`: the z-score was -0.597.

With `CC1(C)CC(=O)C2=C(C1)NC(SCC(=O)Nc1ccccc1)=C(C#N)C2c1ccco1` (centres undefined), the z-score is active: -6.26.

Compound `NS(=O)(=O)c1ccc(CCNC(=O)CN2CCN(c3ccccc3F)CC2)cc1` had a z-score of -0.203.

`COc1ccc(NC(=O)c2sccc2SCC#N)cc1` gave a z-score of -0.312.

The compound `COc1ccc(NC(=O)c2cccs2)cc1O` gave a z-score of 0.366.

`O=C1CCc2cc(S(=O)(=O)NC(Cc3ccccc3)C(=O)NCC3CCCO3)ccc2N1` (centres undefined) yielded a z-score of -0.144.

For `Cc1cc(-c2ccccc2)nc(N2CCC(C(=O)NC(C)C)CC2)n1`, the z-score stood at 0.839.

The compound `O=C(NC1CCCCC1)N1CCC(n2c(=O)[nH]c3ccccc32)CC1` gave a z-score of -0.147.

Take `Cc1ccc(CN2C(=O)CCSc3ccc(Cl)cc32)cc1`: the z-score is -0.054.

Compound `CCC(C(=O)OCC(=O)Nc1c(C)n(C)n(-c2ccccc2)c1=O)c1ccccc1` (centres undefined) yielded a z-score of 0.215.

In turn, `CCN1C(=O)C2(C(C#N)=C(N)Oc3c2c(C)nn3-c2ccccc2)c2ccccc21` (centres undefined) yielded a z-score of 0.549.

For the compound `Nc1c(Nc2ccccc2)c2ccccc2oc1=O`, the z-score is -0.198.

The compound `COc1cccc(C(=O)/C=C/Nc2ccc(S(=O)(=O)Nc3cnc4ccccc4n3)cc2)c1` yielded a z-score of 1.16.

As for `O=C(Nc1nc2c(s1)CN(Cc1ccccc1)CC2)c1cccc(S(=O)(=O)N2CCc3ccccc32)c1`, the z-score is -0.247.

Regarding `Nc1nn(S(=O)(=O)c2ccccc2)cc1-c1ccc([N+](=O)[O-])cc1`, the z-score is -0.403.

In the case of `CC(C)c1ccc2oc(-c3ccc(N)cc3)nc2c1`, the z-score stood at 1.97.

Regarding `O=C(CSc1ccc2nnc(-c3ccc(Cl)cc3)n2n1)N1CCc2ccccc21`, the z-score is -0.448.

As to `O=C(Nc1ccccc1)NC1CCCCC1`, the z-score amounted to 0.18.

As to `Cc1sc(=NC(=O)c2ccco2)n(C)c1-c1ccc(Cl)cc1`, the z-score is -0.385.

For the compound `Clc1ccc(-c2cnc(Oc3ccccc3)nc2)cc1`, the z-score stood at 0.274.

As to `COc1ccc(NC(=O)/C(=C\c2cccnc2)NC(=O)c2cccs2)cc1`, the z-score worked out at 0.33.

As to `COc1cccc(CN2C(=O)C3(C(C#N)=C(N)OC4=C3C(=O)CCC4)c3ccccc32)c1` (centres undefined), the z-score is -0.725.

`Cc1cc(Nc2cccc(F)c2)n2c(n1)nc1ccccc12` showed a z-score of 0.0544.

Turning to `COC(=O)c1c(NC(=O)CC2SCC(C(=O)OC)NC2=O)sc2c1CCCC2` (centres undefined), the z-score is -0.469.

With `Cc1ncc(CSc2nc3ccccc3[nH]2)c(N)n1`, the z-score was -0.344.

In turn, `Cc1ccc(N=C2NC(=O)/C(=C/C=C/c3ccco3)S2)cc1C` had a z-score of -0.0786.

As to `CCOC(=O)CNC(=O)CSc1nc2ncc(Br)cc2[nH]1`, the z-score came to 0.941.

In turn, `Cc1cc(NC(=O)NC2(C(F)(F)F)Oc3ccc(Cl)cc3O2)no1` (centres undefined) yielded a z-score of 0.526.

For `NNc1ncnc2c1cnn2-c1ccccc1`, the z-score is -0.00309.

For `COc1cc(C(=O)NCc2cccc3ccccc23)cc(Cl)c1OC`, the z-score came out at 0.69.

Turning to `CC(C)(C)OC(=O)N1CCCC1C(=O)N1CCCC1C(=O)N1CCCC1C(=O)O` (stereo not drawn) (Boc-Pro-Pro-Pro-OH; configuration not given here), the z-score came to 0.283.

`CC(C)C(=O)Nc1sc2c(c1C#N)CCCCC2` displayed a z-score of -0.021.

Take `N/C(Cc1ccc([N+](=O)[O-])cc1)=N\OC(=O)c1ccc(Br)cc1`: the z-score worked out at 0.018.

Compound `CCCn1nc(Oc2nc(NCC)nc(NCC)n2)ccc1=O` came in with a z-score of -0.475.

The compound `CCC(c1nnnn1C(C)(C)CC)N(CCCO)Cc1cc2cccc(C)c2[nH]c1=O` (centres undefined) showed a z-score of 1.76.

In turn, `COc1ccc2nc(N)sc2c1` displayed a z-score of 0.0701.

In the case of `O=C(CCn1c2c(c3ccccc31)CCCC2)NNC(=O)c1ccc(Cl)c([N+](=O)[O-])c1`, the z-score was 0.0849.

The compound `COc1ccc(Br)cc1C(=O)N/N=C/c1ccc2c(c1)n(C)c(=O)n2C` came in with a z-score of -0.132.

With `COC(=O)c1ccccc1NC(NC(=O)c1ccco1)C(=O)c1ccc(C)cc1` (centres undefined), the z-score is -0.679.

Consider `O=C(O)c1nsc(Cl)c1Cl`, for which the z-score came to 0.11.

Compound `O=C1c2ccccc2C(=O)N1CC1=CCS(=O)(=O)C1` had a z-score of 0.399.

As to `COC(=O)c1cn(NC(=O)c2cccc(OC)c2)c(=O)c2ccccc12`, the z-score was -0.311.

In the case of `O=c1c2c3c(sc2nc2n1CCCS2)CCCC3`, the z-score is -0.23.

In turn, `CC(=O)Nc1c(C)ccc2nsnc12` displayed a z-score of 0.0413.

Compound `O=C(COc1ccc(Cl)cc1)NCc1nnc(SCC(=O)NC2CCCCC2)o1` showed a z-score of -0.382.

In the case of `COc1cccc(CNC(=O)CCNC(=O)Cn2ccc3ccccc3c2=O)c1`, the z-score was -0.209.

In turn, `CC(C)OC(=O)c1ccc(N2C(=O)C3CC=CCC3C2=O)cc1` (centres undefined) registered a z-score of 0.0622.

Consider `COC(=O)c1c(C(=O)OC)c(-c2ccc(C)cc2)n2c1CS(=O)(=O)C2`, for which the z-score was -0.347.

`Cc1cccc(C)c1OCC(O)Cn1c2ccccc2c2ccccc21` (centres undefined): the z-score is -0.494.

Compound `O=C(COc1ccc(Cl)cc1Cl)N(c1ccccn1)C1CCCCC1` yielded a z-score of 0.023.

`CC(C)[C@H](NS(=O)(=O)c1ccc2c(c1)OCCO2)C(=O)OCC(=O)Nc1cc(Cl)ccc1Cl` gave a z-score of -0.133.

`CCOc1cc(CN2CCCCC2)ccc1OC` registered a z-score of 0.476.

Consider `Cc1ccc2c(c1)/C(=N/O)CCS2`, for which the z-score was -0.215.

In turn, `CCCCCOc1ccc(NS(C)(=O)=O)cc1` yielded a z-score of -0.637.

In turn, `CNC(=O)c1nc(C)n(-c2cc(Cl)cc(Cl)c2)n1` yielded a z-score of 0.219.

Compound `CC(C)(C)OC(=O)N[C@@H](Cc1ccccc1)c1nnc(SCC(=O)c2ccc(Cl)cc2)o1` showed a z-score of -0.0785.

The compound `CCN(CC(=O)NC)S(=O)(=O)c1ccc(Br)cc1` showed a z-score of -0.49.

`O=C1S/C(=C/c2ccc(N3CCOCC3)o2)C(=O)N1Cc1ccc(F)cc1`: the z-score was -0.0996.

Turning to `Cc1ccc2oc(C(=O)Nc3c(C)n(C)n(-c4ccccc4)c3=O)c(C)c2c1`, the z-score amounted to 0.185.

`CCOC(=O)N1CCN(C(=O)C2CCCCC2)CC1` registered a z-score of -0.573.

Consider `CCC(Sc1ncccc1C(=O)OC(C)C)C(=O)NCc1ccco1` (centres undefined), for which the z-score was -0.404.

As to `COc1cc(CNC(=O)c2cccc(COc3ccc(Cl)cc3)c2)cc(OC)c1`, the z-score was -0.307.

Regarding `Cc1ccc(C(=O)Nc2ccc(S(=O)(=O)N3CCN(C)CC3)cc2)cc1`, the z-score is -0.284.

On to `CCN(CC)c1ccc(NC(=O)c2cc3ccccc3o2)c(C)c1`, for which the z-score was determined as 0.11.

`COc1ccc(/C(N)=N/OC(=O)Cc2ccc(C)cc2)cc1` had a z-score of -0.305.

Compound `CCc1ccc(NC(=O)COC(=O)C2(c3ccc(Cl)cc3)CCCC2)cc1` showed a z-score of -0.0401.

In turn, `C/C(CC(=O)Nc1cc(Cl)ccc1Cl)=N\NC(=O)c1ccco1` yielded a z-score of 0.0135.

As for `CCCCC(=O)NCCNc1nc2c(c(=O)n(C)c(=O)n2C)n1Cc1ccccc1`, the z-score was 0.0277.

For `NS(=O)(=O)c1ccc(NC(=S)N2CCN(c3cccc(Cl)c3)CC2)cc1`, the z-score was determined as 0.265.

As to `Cc1ccc(CN2CCN(CC(=O)N=Nc3c(O)[nH]c4ccccc34)CC2)cc1`, the z-score was -0.809.

Regarding `CCOC(=O)N1CCC(N2C(=O)c3cc(C(=O)NC4CCCCC4)ccc3C2O)CC1` (centres undefined), the z-score was -0.198.

In turn, `CC(=O)N(C(C)=O)c1c(N2CCOCC2)c2ccccc2oc1=O` gave a z-score of 0.0986.

`CCOC(=O)C1=C(C)N2C(=C(C#N)[C@@H]1c1ccc(C(=O)OC)cc1)SC[C@@]2(O)C(C)(C)C` gave a z-score of -0.00119.

The compound `O=C(CSc1ncnc2c1cnn2CCc1ccccc1)Nc1cccc(C(F)(F)F)c1` showed a z-score of -0.203.

With `COc1cc(CNC(C)(C)CO)cc(Br)c1OCc1ccc(Cl)cc1`, the z-score is 1.1.
